Measured values: the BET-seq Pho4 binding data (Le et al. 2018)
The other results are listed elsewhere or left out. Values were computed here from the reads of four pooled replicates and scatter widely.

Target: T1, Pho4 (S. cerevisiae) (UniProt P07270)
T1 sequence: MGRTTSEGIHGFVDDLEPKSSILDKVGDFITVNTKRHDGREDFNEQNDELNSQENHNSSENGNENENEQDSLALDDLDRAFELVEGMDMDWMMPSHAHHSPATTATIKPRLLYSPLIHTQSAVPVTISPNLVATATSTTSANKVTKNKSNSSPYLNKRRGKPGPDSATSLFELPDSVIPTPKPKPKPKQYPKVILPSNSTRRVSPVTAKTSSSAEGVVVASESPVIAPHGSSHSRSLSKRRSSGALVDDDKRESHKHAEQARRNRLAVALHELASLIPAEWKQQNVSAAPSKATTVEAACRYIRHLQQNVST
Experiment: relative binding free energy (BET-seq); higher = weaker binding
Conditions: reference: library average

| Sequence | relative binding free energy [kcal/mol] |
| --- | --- |
| CTGGGCACGTGGGCTA | -0.21 |
| GTCAGCACGTGAGTTT | 0.29 |
| GGTGGCACGTGGTAAA | -0.1 |
| GGAAGCACGTGTAGAG | -0.11 |
| GGTTGCACGTGGTAGT | -0.01 |
| ATGGTCACGTGTTGGG | 0.12 |
| TTCAACACGTGGGTAG | -0.18 |
| GCTAACACGTGTTGGT | 0.08 |
| TCGGCCACGTGTGAGG | -0.02 |
| ATTGTCACGTGCGTTA | -0.08 |
| AGTCTCACGTGTTCTG | 0.28 |
| ATGGTCACGTGAATGA | 0.21 |
| GTTATCACGTGGCATG | 0.07 |
| AGATTCACGTGATGAG | 0.29 |
| TTAGACACGTGGTAGT | 0 |
| GATGTCACGTGTTGCT | 0.08 |
| TGTTACACGTGAGTCA | 0.19 |
| GTTAGCACGTGTTTAG | 0.04 |
| TAACGCACGTGTTAGT | -0.1 |
| TGGTACACGTGTGTGA | 0.04 |
| TTAAGCACGTGTCGGA | -0.03 |
| TGGAACACGTGAATTG | 0.22 |
| TGACGCACGTGTTAAG | -0.02 |

| Sequence | relative binding free energy [kcal/mol] |
| --- | --- |
| TGTGGCACGTGAGGTA | 0.1 |
| CAGTGCACGTGAGAGG | 0.24 |
| TCGGGCACGTGTGGGT | -0.08 |
| TTGTGCACGTGAGGTT | 0.2 |
| TTGGACACGTGTCATT | 0.01 |
| CGCTACACGTGAGGGG | 0.27 |
| AGTAACACGTGGATTT | 0.05 |
| CGCGGCACGTGCTGGT | -0.23 |
| TGTATCACGTGGCACG | 0.04 |
| TTTCTCACGTGGGTGT | 0.19 |
| ATAGGCACGTGTATTG | -0.05 |
| TGTGGCACGTGTGCAC | -0.22 |
| TATGCCACGTGGGTTA | -0.25 |
| TTGGTCACGTGCCGTT | -0.07 |
| CGGGGCACGTGGTTAA | -0.2 |
| TGGGCCACGTGGAGCT | -0.06 |
| AGGAGCACGTGTAGGA | -0.19 |
| TCTGGCACGTGTGCTG | -0.05 |
| GTAGGCACGTGGGTAT | -0.19 |
| TATCTCACGTGTGGTC | 0.21 |
| TTAGACACGTGGGGCG | -0.07 |
| ACGTTCACGTGTGGGT | 0.21 |
| AGGTCCACGTGGGCGG | -0.26 |

| Sequence | relative binding free energy [kcal/mol] |
| --- | --- |
| ATTATCACGTGCGGTT | 0.1 |
| ATATGCACGTGTTTTG | 0 |
| TGGATCACGTGGTAAA | 0.24 |
| ATATGCACGTGGTTGG | -0.07 |
| AGTTGCACGTGAGCGG | 0.23 |
| CGGTGCACGTGTGTAC | 0.02 |
| TGATTCACGTGGTAAA | 0.33 |
| GTGGACACGTGCGCGT | -0.08 |
| TTCGTCACGTGATTGA | 0.08 |
| CTGGGCACGTGTACGG | -0.03 |
| GATGGCACGTGGGTCG | -0.23 |
| TTTGGCACGTGTGGTC | 0.05 |
| AAGGTCACGTGTTTAA | 0.13 |
| CTGATCACGTGGTCGG | 0.17 |
| AGGATCACGTGGATAA | 0.23 |
| ATGAGCACGTGTTTAA | -0.14 |
| GTTCTCACGTGTGGAG | 0.34 |
| GTGGGCACGTGTGGTA | -0.01 |
| TTGCTCACGTGTTTTA | 0.2 |
| ATTTTCACGTGAACTG | 0.34 |
| TAGTGCACGTGTATGT | -0.05 |
| TGTTTCACGTGTTTTG | 0.27 |
| TTTTGCACGTGGTTGG | 0.04 |

| Sequence | relative binding free energy [kcal/mol] |
| --- | --- |
| ATACGCACGTGAAGGT | 0.06 |
| CCTTACACGTGGGGGG | 0.02 |
| TTTGTCACGTGCTTAG | 0.1 |
| CGCCTCACGTGTGGGG | 0.16 |
| TCTCTCACGTGGGTGT | 0.23 |
| CATTGCACGTGAATTT | 0.32 |
| CGGTTCACGTGCTGTT | 0.33 |
| AAAGGCACGTGAGGGT | 0.1 |
| ATTGGCACGTGATAGG | 0.06 |
| AGGGGCACGTGACAGT | -0.01 |
| GCTATCACGTGGTGAT | 0.13 |
| TGCTTCACGTGAAAGG | 0.42 |
| CGAGGCACGTGCGATG | -0.05 |
| CAAGGCACGTGGGTCG | -0.22 |
| TGTGACACGTGATAGG | 0.05 |
| TTGGCCACGTGGGGGG | -0.15 |
| GAAGGCACGTGCTAGG | -0.17 |
| GGAGGCACGTGTTAGC | 0.09 |
| GTGAGCACGTGGTGAA | -0.18 |
| GGATTCACGTGGTAGT | 0.27 |
| GTCGTCACGTGTTATA | 0.16 |
| TGCGGCACGTGATTTG | -0.05 |
| TATATCACGTGAGAGT | 0.37 |

| Sequence | relative binding free energy [kcal/mol] |
| --- | --- |
| TATAACACGTGTGAAT | 0.1 |
| TAAAGCACGTGCCGGG | -0.02 |
| ATGGGCACGTGAGTCT | 0.1 |
| ATGTACACGTGTCGTT | 0.12 |
| TGGCTCACGTGTTTAT | 0.4 |
| GCGGTCACGTGAAGTG | 0.35 |
| GGCCACACGTGGGGGA | 0.01 |
| CGGGTCACGTGGTTTG | 0.09 |
| TACGTCACGTGGTTGT | 0.03 |
| CGGACCACGTGTTGGT | 0.17 |
| AAAGTCACGTGGAGAT | 0.19 |
| TGCGTCACGTGTGCGG | -0.06 |
| GGTTGCACGTGCATGA | 0.01 |
| ATATACACGTGGGATT | 0.04 |
| GCGTCCACGTGTTGGG | 0.05 |
| GTTCGCACGTGGTAGG | -0.12 |
| AGTACCACGTGGGGAT | -0.15 |
| GGGGACACGTGGATTG | 0.11 |
| ACGAGCACGTGAGGGT | 0.18 |
| AATGTCACGTGCGTAG | 0.09 |
| CTCTGCACGTGGGTTG | -0.12 |
| AGGGGCACGTGGTGCG | -0.21 |
| TATGTCACGTGGTATC | 0.01 |
